Experimental data reported in PubChem BioAssay AID2546 (National Center for Advancing Translational Sciences (NCATS), 2010).
The campaign covered roughly 310,000 compounds. About 11,000 (3.5%) were called active. The shares of active, inactive and inconclusive entries below differ from those in the screen. The call rests on the fitted dose curve; in most records, active means well fitted inhibition curve with a large enough effect; inconclusive means small, poorly fitted or top-dose-only effect, or effect the other way; inactive means flat fitted curve, though single readings scatter. Potencies of inconclusive entries are left out as doubtful fits.
On the % scale 0 is the no-effect control and ±100 the full control effect; potency means the concentration at half of the fitted maximal effect; tags describe the fitted curve by direction and shape.

Assay: VP16 counterscreen qHTS for inhibitors of ROR gamma transcriptional activity;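 further: Gal4-VP16 expression switched on by copper sulfate through the metallothionein promoter; nearly all actives have a fitted effect of over 50% in size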
Conditions: Drosophila S2 Gal4-VP16 UAS-luciferase, luminescence, 20 h; activity, negative = inhibition: at 53.6 µM (top of the series)
With `O=S(=O)(NCc1cn2ccsc2n1)c1ccc(Oc2ccccc2)cc1` the Potency was inconclusive [inhibitor, single point]. For `C=CCn1c(-c2ccoc2C)n[nH]c1=S`, the Potency was inconclusive [inhibitor, full curve]. In the case of `O=C(Nc1nccs1)c1ccc(Cl)c([N+](=O)[O-])c1`, the Potency is reported as active: 4.47 µM. In the case of `CC(C)COc1ccc(C(=O)CCN2CCCCC2)cc1`, the Potency is reported as active: 11.2 µM. For `CN(C)S(=O)(=O)c1cccc(-n2sc3ccccc3c2=O)c1`, the Potency was inconclusive [inhibitor, single point]. With `O=C(Nc1ccncc1)C1CC1c1ccccc1` (stereo not given) the Potency was inconclusive [inhibitor, single point]. For `Cc1ccc(C)c(NC(=O)c2cc(-c3cc(C)cc(C)c3O)n[nH]2)c1`, the “activity, negative = inhibition” value was inactive: 3.11%. For `COc1cc(OC)c2c(-c3ccccc3)cc(=O)oc2c1C(CCN1CCOCC1)c1ccc(N(C)C)cc1` (stereo not given), the Potency was inconclusive [inhibitor, single point]. For `CN1C2CCC1CC(NS(=O)(=O)c1cc(Cl)c(Cl)cc1Cl)C2` (stereo not given), the “activity, negative = inhibition” value was inactive: -5.88%. With `CCCc1cc(C(=O)N/N=C/c2ccc(C)o2)c2ccccc2n1` the “activity, negative = inhibition” value was inactive: 0%. In the case of `O=C(CCc1ccc(Oc2cc([N+](=O)[O-])cc([N+](=O)[O-])c2)cc1)N1CCCCC1`, the Potency is reported as active: 12.6 µM. With `COc1cc2c(cc1OC)C1OC(c3ccsc3)(C2)Oc2cc(C)oc(=O)c21` (stereo not given) the activity, negative = inhibition was inactive: -4.49% [at 10 µM]. In the case of `N#Cc1c(Sc2ncc(C(F)(F)F)cc2Cl)nsc1C/C=N\OCc1ccccc1Br`, the “activity, negative = inhibition” value is reported as inactive: -27.2%. With `CCOc1ccc(CCNC(=O)c2ccc3c(=O)n4c(nc3c2)CCCCC4)cc1` the “activity, negative = inhibition” value was inactive: 1.83%. For `N/C(=N\OC(=O)CC1CCCCC1)c1ccc([N+](=O)[O-])cc1`, the Potency was active: 35.5 µM. With `Cc1cc(C)c(S(=O)(=O)c2ccc(Cl)cc2)c(Cl)n1` the “activity, negative = inhibition” value was inactive: -2.98%. For `CC(C)(C)c1ccc(C(=O)c2c[nH]c(C(=O)NCc3cccnc3)c2)cc1`, the Potency was inconclusive [inhibitor, single point]. For `Cc1cc(/C=N/NC(=O)c2ccncc2)c(C)n1-c1cccc(C(F)(F)F)c1`, the Potency was inconclusive [inhibitor, single point]. For `N#CC1=C(N)N(c2ncn[nH]2)C2=C(C(=O)CCC2)C1c1ccc(F)cc1` (stereo not given), the “activity, negative = inhibition” value was inactive: -6.69%. With `CS(=O)(=O)N(CC(=O)Nc1ccccc1Br)Cc1ccccc1` the “activity, negative = inhibition” value was inactive: -3.85%. For `Cc1ccc(-n2nc3cc(C)c(NC(=S)NC(=O)/C=C/c4ccco4)cc3n2)cc1`, the Potency was active: 5.01 µM. In the case of `COc1ccccc1[C@H]1C(c2ccc(F)cc2)=NN(c2ccccc2)[C@@H]1CO`, the “activity, negative = inhibition” value is reported as inactive: -10.2%. For `CCOC(=O)C/C(N)=N/NC(=O)c1ccc(Cl)cc1Cl`, the Potency was inconclusive [inhibitor, single point]. With `CC(C)(C)c1ccccc1NC(=S)NC1CCCC1` the Potency was active: 3.55 µM. With `CC(C)(C)c1csc(NC(=O)c2ccncc2)n1` the Potency was inconclusive [inhibitor, single point]. For `N#Cc1cc2sc3nc4ccccc4n3c2cc1C#N`, the “activity, negative = inhibition” value was inactive: -16.8%. In the case of `COc1cccc(-c2cncnc2NCCc2c[nH]c3ccc(OC)cc23)c1`, the Potency is reported as inconclusive [inhibitor, single point]. For `COc1ccc2nc(Nc3ccccc3OC)sc2c1`, the Potency was inconclusive [inhibitor, single point]. In the case of `COc1ccc(OC(=O)c2c(C)nn(-c3ccccc3)c2C)cc1`, the Potency is reported as inconclusive [activator, partial curve]. With `COc1ccc(Cn2c(=N)c(C(=O)NC3CCCCC3)cc3c(=O)n4ccccc4nc32)cc1` the “activity, negative = inhibition” value was inactive: 2.85%. With `Cn1c(-c2ccc(Cl)cc2)cnc1N` the Potency was inconclusive [inhibitor, single point]. With `O=C(NC1CCCC1)C1CC(=O)N(c2ccccc2)C1` (stereo not given) the “activity, negative = inhibition” value was inactive: -7.53%. For `CC(C)Nc1ncnc2c1cnn2-c1ccc(Cl)cc1`, the Potency was inconclusive [inhibitor, single point]. In the case of `COc1ccc(OC)c(/C=C/c2ccc3cccc(O)c3n2)c1`, the Potency is reported as active: 4.47 µM. In the case of `CCN(CC)S(=O)(=O)c1ccc(C(=O)NCCSc2c[nH]c3ccccc23)cc1`, the “activity, negative = inhibition” value is reported as inactive: -11.7%. For `Cc1ccc(C(=O)Cn2c3c(sc2=N)CCCC3)cc1`, the Potency was inconclusive [inhibitor, full curve, poor fit]. With `CCCc1ccc(-c2cc(C(=O)NC3=NCCS3)c3ccccc3n2)cc1` the Potency was active: 1.58 µM. For `Cc1cccc(NC(=O)c2cnc3ccccn3c2=O)c1`, the Potency was inconclusive [inhibitor, full curve]. In the case of `CCN(CC)S(=O)(=O)c1ccc2oc(SCc3ccc(F)cc3)nc2c1`, the Potency is reported as inconclusive [inhibitor, full curve]. For `CCOC(=O)C1CCN(CC(=O)Nc2ccc(OC)c(Cl)c2)CC1`, the “activity, negative = inhibition” value was inactive: -5.78%. In the case of `CCCCC(=O)NC(c1ccc(C(C)C)cc1)c1ccc2cccnc2c1O` (stereo not given), the Potency is reported as active: 2.82 µM. With `Cn1c(=O)c2c(nc(CN3CCN(Cc4ccccc4)CC3)n2Cc2ccccc2)n(C)c1=O` the “activity, negative = inhibition” value was inactive: 1.24%. For `O=C(CCl)NCCN1C(=O)S/C(=C\c2cccnc2)C1=O`, the Potency was inconclusive [inhibitor, single point]. With `CCOC(=O)C1(Cc2ccc(Cl)cc2)CCN(C(=O)C2=NNC(=O)CC2)CC1` the Potency was inconclusive [inhibitor, partial curve, poor fit]. With `CCNC(=S)N1CCN(c2nc(CC)nc3sc4c(c23)CCCC4)CC1` the Potency was inconclusive [inhibitor, single point]. For `C=CCNC(=S)Nc1cccc(NC(=S)NCC=C)c1`, the Potency was inconclusive [inhibitor, partial curve]. In the case of `CCOc1ccccc1NC(=S)N1CCN(c2ccccc2)CC1`, the Potency is reported as inconclusive [inhibitor, single point]. For `COC(=O)c1cnc(SCc2ccc(Cl)cc2)n1C`, the Potency was inconclusive [activator, full curve]. With `Cc1occc1C(=O)N/N=C/c1cnn(C)c1C` the Potency was inconclusive [activator, full curve, poor fit]. For `CCC(Sc1nc2n[nH]c(C)c2c(=N)n1-c1cccc(Cl)c1C)C(=O)N(CC)CC` (stereo not given), the “activity, negative = inhibition” value was inactive: -8.94%.
